# Source: paper PMC4336329 (PLoS ONE, 2015)
# Out of some 310,000 compounds screened, about 2,200 (0.71%) showed an effect of 50% or more. The effect is printed as a negative number. This is one part of the list.
# Target: human ether-à-go-go-related gene (hERG) potassium channel (human, UniProt Q12809)
# Assay: primary screen, population patch clamp on CHO cells stably expressing hERG
# human ether-à-go-go-related gene (hERG) potassium channel, sequence (Q12809 whole entry, looked up): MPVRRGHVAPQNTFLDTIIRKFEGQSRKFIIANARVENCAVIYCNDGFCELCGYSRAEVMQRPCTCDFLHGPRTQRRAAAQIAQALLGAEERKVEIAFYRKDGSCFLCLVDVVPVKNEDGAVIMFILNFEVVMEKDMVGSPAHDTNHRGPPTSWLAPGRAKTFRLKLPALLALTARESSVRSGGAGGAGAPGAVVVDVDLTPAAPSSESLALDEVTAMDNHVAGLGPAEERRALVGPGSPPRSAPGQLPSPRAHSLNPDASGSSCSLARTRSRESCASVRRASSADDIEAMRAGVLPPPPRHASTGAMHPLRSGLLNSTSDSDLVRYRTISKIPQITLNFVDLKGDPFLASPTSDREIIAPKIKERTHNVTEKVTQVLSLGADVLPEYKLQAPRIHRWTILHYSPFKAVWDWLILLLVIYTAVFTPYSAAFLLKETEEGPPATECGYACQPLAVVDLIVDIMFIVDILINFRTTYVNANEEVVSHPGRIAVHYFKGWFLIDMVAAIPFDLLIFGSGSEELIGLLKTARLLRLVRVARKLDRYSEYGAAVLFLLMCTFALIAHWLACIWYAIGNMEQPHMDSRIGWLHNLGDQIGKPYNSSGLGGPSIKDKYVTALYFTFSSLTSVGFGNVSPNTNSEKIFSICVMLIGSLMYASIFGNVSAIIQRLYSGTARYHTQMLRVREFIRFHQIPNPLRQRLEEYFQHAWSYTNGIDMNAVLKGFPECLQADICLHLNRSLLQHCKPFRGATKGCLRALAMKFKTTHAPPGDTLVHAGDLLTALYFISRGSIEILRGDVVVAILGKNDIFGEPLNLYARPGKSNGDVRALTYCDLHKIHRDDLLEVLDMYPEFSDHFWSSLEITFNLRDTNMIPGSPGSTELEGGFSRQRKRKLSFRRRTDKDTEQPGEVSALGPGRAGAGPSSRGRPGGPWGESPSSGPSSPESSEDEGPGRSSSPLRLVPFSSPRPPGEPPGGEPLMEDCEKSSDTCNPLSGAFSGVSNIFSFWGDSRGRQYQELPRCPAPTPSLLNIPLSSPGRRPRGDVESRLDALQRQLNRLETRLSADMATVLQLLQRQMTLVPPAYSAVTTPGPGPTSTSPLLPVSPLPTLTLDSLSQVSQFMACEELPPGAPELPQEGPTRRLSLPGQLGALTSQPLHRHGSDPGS
row,Structure (SMILES),"hERG current change (%, negative = inhibition) at 1uM [%]"
1,O=C(c1ccc2c(c1)OCO2)N1CCCC(c2ccccc2)C1 (stereo not shown),7.47
2,Cc1ccc(C(=O)N2CCCC(CCC(=O)N3CCN(c4ccccn4)CC3)C2)cc1 (stereo not shown),15.9
3,COCCCNS(=O)(=O)c1ccc2c(c1)OCCO2,5.7
4,COc1ccc(CC(=O)Nc2c3c(nn2C(C)(C)C)CS(=O)C3)cc1 (stereo not shown),10
5,CCC1CCCCN1Cc1ccc(OC)c(C)c1C (stereo not shown),0.813
6,COc1ccc(NC(=O)Nc2ccc(F)cc2)c(C)c1,10.3
7,Cc1noc(C)c1COC(=O)c1cc(S(=O)(=O)N2CCOCC2)ccc1F,8.81
8,COc1ccc(CS(=O)(=O)CC(C)(O)c2ccccc2)cc1 (stereo not shown),8.48
9,COc1cc(Cn2c(=O)oc3ccc(C)cc32)ccc1OC(C)C,3.97
10,COc1ccc(CNC(=O)c2nnn(Cc3ccc(OC)cc3)c2N)cc1,10.8
11,CCOc1ccccc1C(=O)Nc1ccccc1-c1ccccc1,13
12,CC1CCCN(C/C=C/c2ccccc2[N+](=O)[O-])C1 (stereo not shown),0.0822
13,COC(=O)c1cc(-c2ccc(Br)cc2)on1,8.21
14,CC1(c2ccc(Cl)cc2Cl)OCC(Cn2cncn2)O1.O=[N+]([O-])O (stereo not shown),9.62
15,O=C(N[C@H]1CCC(=O)N(CCSc2ccc(Br)cc2)CC1)OCc1ccccc1,5.59
16,Nc1ncc([N+](=O)[O-])c(Oc2ccccc2F)n1,7.68
17,COc1ccc(Cl)cc1N(CC(=O)Nc1cccc(SC)c1)S(C)(=O)=O,2.67
18,O=C(Oc1nsnc1N1CCOCC1)c1ccccc1,6.03
19,O=C1NC(=S)N/C1=C\c1cccc([N+](=O)[O-])c1,16.1
20,COc1cc(/C=N/NC(=O)c2cc(-c3ccccc3)nc3ccccc23)cc(OC)c1O,13.5
21,CCOc1ccc(S(=O)(=O)NCCC(=O)NCC(c2ccc(F)cc2)N2CCOCC2)cc1 (stereo not shown),-2.14
22,Cc1ccc(CN2CCSCC2)c(C)c1,20.2
23,COc1ccc(/C=C/C(=O)NC(=S)N2CCCC(C(N)=O)C2)cc1 (stereo not shown),15.2

row,Structure (SMILES),"hERG current change (%, negative = inhibition) at 1uM [%]"
1,CCCN(CC(=O)Nc1ccccc1OC)C(=O)CCC(=O)c1ccc(OCC)cc1,-3.38
2,CCOC(=O)CSc1nn(-c2ccccc2)c(=S)s1,11.1
3,CC(CN1CCCC1)OC(=O)c1ccccc1Cl.Cl (stereo not shown),11.7
4,O=C(COC(=O)c1ccc(O)cc1O)Nc1ncc(Cl)cc1Cl,1.61
5,Cc1nn(-c2ccccc2)c(C)c1C(=O)OCC(=O)N(C)c1ccccc1,13.8
6,CCOc1cc(/C=C(\C#N)c2nc(-c3cccs3)c(NC(C)=O)s2)ccc1O,-2.22
7,Cc1ccc(C)c(S(=O)(=O)N2CCC(c3nc4c(nnn4Cc4ccc5c(c4)OCCO5)c(=O)[nH]3)CC2)c1,11.3
8,CS(=O)(=O)c1ccc(N)c(SSc2cc(S(C)(=O)=O)ccc2N)c1,5.39
9,Clc1ccc(Cn2cnc3ccccc32)cc1,12.5
10,c1ccc(N2N=C(c3cccs3)CC2c2ccco2)cc1 (stereo not shown),10.2
11,CCn1cc([N+](=O)[O-])c(C(=O)Nc2ccn(C34CC5CC(CC(C5)C3)C4)n2)n1,12.5
12,O=C(c1cccc(NS(=O)(=O)c2ccc(Br)cc2)c1)N1CCCCC1,4.34
13,O=C(NC(=S)NCc1ccccc1)c1cccc(Cl)c1,12.3
14,O=C(COC(=O)c1cccnc1Cl)NCCCc1ccccc1,7.26
15,O=C(Nc1ccc(Cl)c(Cl)c1)OCc1cncs1,-8.72
16,O=C(CSc1n[nH]c(-c2cc(Cl)ccc2Cl)n1)NCCN1C(=O)CSC1=O,13.1
17,O=C(COc1ccc(Cl)cc1)N1CCCCCCC1,9.48
18,O=C1CSC(c2cccnc2)N1Cc1ccc(Cl)cc1 (stereo not shown),9.82
19,CCCCCC(=O)NNC(=S)NC(=O)c1cccc([N+](=O)[O-])c1,17.3
20,Cc1cc(C)n(/N=C/c2cc(Cl)cc(Cl)c2O)c(=O)c1,14
21,Cc1ccc(SCC(=O)NC2CCS(=O)(=O)C2)cc1C (stereo not shown),8.74
22,Cc1ccc(-n2c(-c3cccnc3)n[nH]c2=S)c(C)c1,-3.04
23,COc1ccc(/C=C/C(=O)NC(=S)Nc2ccccn2)cc1,1.3

row,Structure (SMILES),"hERG current change (%, negative = inhibition) at 1uM [%]"
1,O=C(CN1C(=O)c2ccccc2S1(=O)=O)NCCSCc1cccc(Cl)c1,13.2
2,CC(=O)c1sc(NC(=O)c2ccco2)nc1-c1ccccc1,13.6
3,OC12CCCCC1C(c1ccc3c(c1)OCO3)N(Cc1ccc(F)cc1)CC2 (stereo not shown),8.72
4,CS(=O)(=O)CCC(C(=O)N1CCOCC1)N1C(=O)c2cc(Cl)c(Cl)cc2C1=O (stereo not shown),13.8
5,CCCn1c2ccccc2c2cnn(CC(=O)NCCOC)c(=O)c21,6.19
6,CCc1ccc(/C=N/NC(=O)c2cc(-c3ccccc3OC)nc3ccccc23)s1,14.1
7,CCC1CCCCN1c1nc(-c2cccc(OC)c2O)nc2ccccc12 (stereo not shown),13.6
8,COCCCNC(=O)CSc1nc2cc(C(=O)NCCOC)ccc2c(=O)n1Cc1ccc2c(c1)OCO2,7.01
9,O=P(O)(O)c1cc(-c2ccccc2)oc1-c1ccccc1,14.7
10,COc1ccc(OCc2n[nH]c(=S)n2-c2ccc(C)cc2)cc1,3.13
11,COc1ccc(CCNC(=O)c2ccc(CN3CCOCC3)cc2)cc1,9.31
12,Cc1ccc(-n2c(=O)c3sccc3n(CC(=O)N3CCCC3)c2=O)cc1,10.9
13,CCC(=O)Nc1c(C)n[nH]c1C,14
14,CSc1ccc(C(=O)C2CCCN(C(=O)Cc3nonc3C)C2)cc1 (stereo not shown),1.07
15,Cc1ccc(Cn2ccc(NC(=O)c3nn(C)cc3Cl)n2)cc1,0.725
16,O=C(COc1ccc2c3c(c(=O)oc2c1)CCC3)NCC1CCC(C(=O)O)CC1 (stereo not shown),18.7
17,CC(=O)c1ccc(OCc2cc(C(=O)N(C)CCN3CCOCC3)no2)cc1,13.7
18,COC1CCCN(C(=O)c2cccc(OC3CCN(S(=O)(=O)N(C)C)CC3)c2)C1 (stereo not shown),19
19,CC(=O)c1ccc(NC(=O)c2cccc(NC(=O)c3ccccc3)c2)cc1,12.5
20,Cc1cc(C)c2oc(C(=O)N(Cc3ccccc3)C3CCS(=O)(=O)C3)cc(=O)c2c1 (stereo not shown),7.34
21,Cc1cc(Cl)cc(Cl)c1OCCOc1cccc2cccnc12,16.2
22,Cc1nn(C)c(C)c1/C=N/NC(=O)C(C)(C)Oc1ccc(Cl)cc1,8.86
23,CCN(C(=O)/C=C/c1cc(OC)c(OC)c(OC)c1)C1CCCCC1,12.8

row,Structure (SMILES),"hERG current change (%, negative = inhibition) at 1uM [%]"
1,O=C(COC(=O)/C=C/c1ccccc1)Nc1cccnc1Cl,9.3
2,c1ccc(CNc2c3c(nc4ncnn24)CCCC3)nc1,-0.536
3,O=C(CCn1nnnc1CN1CCOCC1)N1CCC(c2ccccc2F)C1 (stereo not shown),3.83
4,CCCCC(NC(=O)Cc1c(C)c2cc3c4c(oc3cc2oc1=O)CCCC4)C(=O)O (stereo not shown),10.8
5,CCc1ccc(-c2cc(C)no2)cc1S(=O)(=O)NCCc1ccc(OC)c(OC)c1,19.2
6,COCCCNC(=O)c1cc(Sc2nnc(C)s2)nc2ccccc12,10.1
7,CC1(C)OC(=O)C(=CNCC(O)c2ccccc2)C(=O)O1 (stereo not shown),15.9
8,COc1ccc(C(C(=O)NCCC(C)C)N(CCCO)C(=O)c2snc(C(N)=O)c2N)cc1OC (stereo not shown),12.7
9,CCOC(=O)c1sc(NC(=O)CSc2nccc(C)n2)c(C#N)c1C,7.98
10,CCOCCCNC(=S)N(Cc1ccccc1)Cc1nc2ccccc2c(=O)[nH]1,3.8
11,Cc1ccccc1Nc1nc(N)nc(COC(=O)CCNS(=O)(=O)c2ccccc2)n1,-1.7
12,CCOC(=O)C1(C(F)(F)F)N=C(c2cccnc2)OC(N2CCOCC2)=N1 (stereo not shown),12.8
13,COc1ccc(Cl)cc1NC(=S)NCCC(c1ccccc1)c1ccccc1,9.05
14,CN(C)C=NC(=O)c1cc(C(=O)c2ccc(Cl)cc2)c[nH]1,10.1
15,CCOc1ccc(C=NCC(O)c2ccccc2)cc1 (stereo not shown),11.3
16,N/C(Cn1cncn1)=N\NC(=O)C(=O)Nc1cccc(C(F)(F)F)c1,14.3
17,COc1ccc(CCNC(=O)CSc2nc(=O)[nH]c3c2CCC3)cc1OC,12.2
18,CN(C)Cc1n[nH]c(=O)c2ccccc12,9.65
19,Cc1ccc(S(=O)(=O)N(C)C)cc1NC(=S)NC1CCCC(C)C1C (stereo not shown),14.3
20,Cc1ccc(NC2CCCCC2NS(=O)(=O)c2ccccc2)c(C)c1 (stereo not shown),14.3
21,CCOC(=O)CC1(c2ccccc2)CCOC(C)(C)C1 (stereo not shown),9.57
22,COc1cc2c(c(OC)c1OC)-c1ccc(O)c(=O)cc1C(NC(C)=O)CC2 (stereo not shown),14.6
